{"source": "PubChem BioAssay AID588382", "about": "(National Center for Advancing Translational Sciences (NCATS), 2011)", "note": "The whole screen tested about 1,300 compounds, of which about 150 (12%) were called active. About 30% were inconclusive and are not listed. The call rests on the fitted dose curve; in most records, active means well fitted cell-killing curve with a large enough effect; inconclusive means small, poorly fitted or top-dose-only effect, or effect the other way; inactive means flat fitted curve, though single readings scatter. This is a selection; strong and weak results do not stand in their true shares. On the % scale 0 is the no-effect control and ±100 the full control effect; potency means the concentration at half of the fitted maximal effect.", "data": [{"assay": "qHTS of small molecules that selectively kill Giardia lamblia: Hit Validation in HepG2 cytotox;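 further: compound exposure lasted overnight at 37 deg C; nearly all actives have a fitted effect of over 55% in size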;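 on activity change, negative = cytotoxicity: viability measured as cellular ATP by ATPLite luminescence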", "conditions": "cell viability; Potency: HepG2 cytotoxicity; series mostly up to 38.3 µM; activity change, negative = cytotoxicity: at the top concentration", "summary_of_the_method": "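Counterscreen cytotoxicity: ATPLite luminescence (15 min, room temperature) measured in HepG2 cells exposed overnight at 37 deg C to pin-transferred compound (23 nL) after overnight pre-incubation.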", "values": [{"compound": "Cc1cc(C(=O)COc2cccnc2[N+](=O)[O-])c(C)n1-c1ccccc1", "activity change, negative = cytotoxicity": "inactive: 5.87%"}, {"compound": "Cc1cccc(N2CCN(C(=S)Nc3ccc4nc(N5CCN(C)CC5)cc(C)c4c3)CC2)c1C", "Potency": "active: 4.65 µM"}, {"compound": "O=C(NCc1ccccn1)C1CCCN(S(=O)(=O)c2cc(Cl)ccc2Cl)C1", "note": "(stereo not given)", "Potency": "active: 3.69 µM"}, {"compound": "COc1ccc(-n2nc([N+](=O)[O-])c(=NCCc3ccc(OC)c(OC)c3)n2O)cc1", "activity change, negative = cytotoxicity": "inactive: 19.2%"}, {"compound": "O=C(Nc1cccc(S(=O)(=O)N2CCCCC2)c1)c1ccc([N+](=O)[O-])o1", "Potency": "active: 11.7 µM"}, {"compound": "C/C(=N\\NC(=O)COc1ccc(C)cc1Br)c1cc([N+](=O)[O-])cs1", "activity change, negative = cytotoxicity": "inactive: 1.76%"}, {"compound": "CCOc1ccccc1NS(=O)(=O)c1c[nH]c(C(=O)OC)c1", "activity change, negative = cytotoxicity": "inactive: 13.9%"}, {"compound": "CCN1C[C@@H]2[C@@H]3C(=O)N(C)C(=O)[C@@H]3[C@](C)(C1=O)N2C(=O)c1ccc(Cl)c(Cl)c1", "activity change, negative = cytotoxicity": "inactive: 1.87%"}, {"compound": "O=C(NNC(=O)c1ccncc1)Nc1cccc([N+](=O)[O-])c1", "activity change, negative = cytotoxicity": "inactive: -0.887%"}, {"compound": "Cc1ccc(CNC(=O)CSc2ccsc2[N+](=O)[O-])cc1", "activity change, negative = cytotoxicity": "inactive: 11.7%"}, {"compound": "O=[N+]([O-])c1nn(-c2ccccc2)[n+]([O-])c1N1CCN(c2ccccc2F)CC1", "activity change, negative = cytotoxicity": "inactive: 8.55%"}, {"compound": "CCC(C)Nc1ccc(NC(C)CC)cc1", "note": "(stereo not given)", "Potency": "active: 0.165 µM"}, {"compound": "COCCn1c(C)cc(/C=C2\\NC(=S)N(C)C2=O)c1C", "activity change, negative = cytotoxicity": "inactive: -6.14%"}, {"compound": "CCOCCOc1nc2c(c(=O)n(C)c(=O)n2C)n1Cc1ccc(C)cc1", "activity change, negative = cytotoxicity": "inactive: 7.93%"}, {"compound": "COc1ccc(CCNC(=O)CSc2ccsc2[N+](=O)[O-])cc1OC", "activity change, negative = cytotoxicity": "inactive: -5.55%"}, {"compound": "CC1CS(=O)(=O)CCN1N=Cc1ccc([N+](=O)[O-])o1", "note": "(stereo not given)", "activity change, negative = cytotoxicity": "inactive: 18%"}, {"compound": "O=C(Nc1csc([N+](=O)[O-])c1)Nc1ccccc1Cl", "activity change, negative = cytotoxicity": "inactive: -14.3%"}, {"compound": "O=C(COc1cccnc1[N+](=O)[O-])Nc1cccc2ccccc12", "activity change, negative = cytotoxicity": "inactive: -9.25%"}, {"compound": "COc1cc(/C=C(\\NC(=O)c2ccccc2)C(=O)NCCO)c([N+](=O)[O-])cc1OC", "activity change, negative = cytotoxicity": "inactive: 23.4%"}, {"compound": "CCc1ccccc1NC(=O)CC(NCc1ccccc1)C(=O)O", "note": "(stereo not given)", "activity change, negative = cytotoxicity": "inactive: 0.896%"}, {"compound": "NC(=S)N/N=C1\\c2ccccc2-c2c(C(=O)O)cccc21", "activity change, negative = cytotoxicity": "inactive: 7.38%"}, {"compound": "O=C(CSc1ccsc1[N+](=O)[O-])NCCc1ccc(Cl)cc1", "activity change, negative = cytotoxicity": "inactive: 19.5%"}, {"compound": "CC(=O)Nc1ccc(S(=O)(=O)N(CCc2ccccc2)CC(=O)N/N=C/c2ccc(C(=O)O)cc2)cc1", "activity change, negative = cytotoxicity": "inactive: 18.8%"}, {"compound": "COc1cccc(NC2c3ccccc3C(=O)N2Cc2ccco2)c1", "note": "(stereo not given)", "activity change, negative = cytotoxicity": "inactive: 8.15%"}, {"compound": "O=C(c1cc(COc2c(F)cccc2F)on1)N1CCc2ccccc2C1", "activity change, negative = cytotoxicity": "inactive: 2.36%"}, {"compound": "CC/C=C1/N=C2C(=O)N(C)C(=O)N=C2N(C)N1", "Potency": "active: 3.29 µM"}, {"compound": "C[C@H](CO)N1C[C@H](C)[C@H](CN(C)C(=O)Nc2ccc(C(F)(F)F)cc2)Oc2c(NC(=O)c3ccncc3)cccc2C1=O", "activity change, negative = cytotoxicity": "inactive: -27.4%"}, {"compound": "Cc1ncc([N+](=O)[O-])n1CCOC(=O)c1ccccc1", "activity change, negative = cytotoxicity": "inactive: 12.9%"}, {"compound": "CS(=O)(=O)N1CCN(c2ccc(NC(=O)c3ccc([N+](=O)[O-])o3)cc2)CC1", "Potency": "active: 3.69 µM"}, {"compound": "O=c1c2c(-c3ccccc3)csc2ncn1/N=C/c1ccc(O)c([N+](=O)[O-])c1", "activity change, negative = cytotoxicity": "inactive: 10.5%"}, {"compound": "C[C@@H]1CN([C@@H](C)CO)C(=O)c2cccc(NS(=O)(=O)c3cccs3)c2O[C@H]1CN(C)Cc1ccc(C(F)(F)F)cc1", "activity change, negative = cytotoxicity": "inactive: 7.74%"}, {"compound": "COc1cc2c(cc1OC)CN(Cc1cc(=O)oc3c(C)c(C)ccc13)CC2", "activity change, negative = cytotoxicity": "inactive: 10.8%"}, {"compound": "Cn1nc(-c2cccnc2)nc2c(=O)n(C)c(=O)nc1-2", "Potency": "active: 3.69 µM"}, {"compound": "COC(=O)c1cc(NC(=O)c2cc(C(C)(C)C)nn2Cc2ccc(F)cc2)ccc1N1CCOCC1", "activity change, negative = cytotoxicity": "inactive: 0.619%"}, {"compound": "CN=c1c([N+](=O)[O-])nn(-c2ccc3c(c2)OCCO3)n1O", "activity change, negative = cytotoxicity": "inactive: 19.2%"}, {"compound": "COc1ccccc1NCCC(=O)OCC(=O)NC1CCCCCC1", "activity change, negative = cytotoxicity": "inactive: 15.5%"}, {"compound": "CCN(C(=O)N(CC)c1ccccc1)c1ccccc1", "activity change, negative = cytotoxicity": "inactive: 1.3%"}, {"compound": "Cc1cc(C)c2sc(NC(=O)c3ccc([N+](=O)[O-])o3)nc2c1", "activity change, negative = cytotoxicity": "inactive: -15%"}, {"compound": "Cc1oc2cc([N+](=O)[O-])c(O)c([N+](=O)[O-])c2c1C(=O)c1ccc(Br)cc1", "activity change, negative = cytotoxicity": "inactive: 1.97%"}, {"compound": "Cc1c(C(=O)O)sc2nc(SCC(=O)Nc3ccc(S(=O)(=O)NC(C)(C)C)cc3)[nH]c(=O)c12", "activity change, negative = cytotoxicity": "inactive: 7.11%"}, {"compound": "Cc1ccn(-c2ccc(NC(=O)c3cccs3)cc2)n1", "Potency": "active: 9.27 µM"}, {"compound": "CCOC(=O)N=Nc1c2ccccc2c2nc3no[nH]c3nc12", "Potency": "active: 0.736 µM"}, {"compound": "Cc1ccc(CSc2nc3ccncc3[nH]2)cc1", "Potency": "active: 0.369 µM"}, {"compound": "Cc1ccc(-n2c(C)cc(C(=O)COc3cccnc3[N+](=O)[O-])c2C)cc1", "activity change, negative = cytotoxicity": "inactive: 12.6%"}, {"compound": "COc1ccc(OCc2nnc3n2N=C(c2ccc(OC)cc2)CS3)cc1", "activity change, negative = cytotoxicity": "inactive: 3.22%"}, {"compound": "[O-][n+]1c2ccccc2c2n1CCN=C2c1ccc(Cl)cc1", "activity change, negative = cytotoxicity": "inactive: 1.04%"}, {"compound": "CCOC(=O)C1=C(C)NC2=C(C(=O)c3ccccc32)C1c1ccc([N+](=O)[O-])o1", "note": "(stereo not given)", "activity change, negative = cytotoxicity": "inactive: -1.83%"}, {"compound": "O=C(Nc1ncc([N+](=O)[O-])s1)C1CC(=O)N(c2ccc(F)cc2)C1", "note": "(stereo not given)", "activity change, negative = cytotoxicity": "inactive: 1.9%"}, {"compound": "COc1ccc(CNC(=O)CN2C(=O)COc3ccc(S(=O)(=O)N4CCCCC4)cc32)cc1", "activity change, negative = cytotoxicity": "inactive: 10%"}, {"compound": "O=C(CN1CCN(c2ccccc2)CC1)Nc1scc2c1c(=O)oc1ccccc12", "activity change, negative = cytotoxicity": "inactive: 23%"}, {"compound": "Cc1cc(C)cc(NC(=O)Cn2c(=O)oc3cc(S(=O)(=O)N4CCC(C)CC4)ccc32)c1", "activity change, negative = cytotoxicity": "inactive: -15.5%"}, {"compound": "CCN(C(=O)COC(=O)c1cc(S(=O)(=O)N2CCc3ccccc32)ccc1OC)C1CCS(=O)(=O)C1", "note": "(stereo not given)", "activity change, negative = cytotoxicity": "inactive: 18.5%"}, {"compound": "Cc1nc(CS(=O)(=O)c2ccc(Cl)cc2)sc1C(=O)O", "activity change, negative = cytotoxicity": "inactive: 3.81%"}, {"compound": "Fc1cc2[nH]cnc2cc1Cl", "activity change, negative = cytotoxicity": "inactive: 2.06%"}, {"compound": "CN(C)C(=O)C[n+]1ccc(C(N)=O)cc1", "activity change, negative = cytotoxicity": "inactive: 4.17%"}, {"compound": "Cc1ccc(N2CC(C(=O)Nc3ncc([N+](=O)[O-])s3)CC2=O)cc1", "note": "(stereo not given)", "activity change, negative = cytotoxicity": "inactive: 11%"}, {"compound": "COc1ccc2nc(C)cc(N/N=C/c3ccc(F)cc3)c2c1", "Potency": "active: 2.33 µM"}, {"compound": "CCC1CCCCN1C(=O)c1ccc([N+](=O)[O-])o1", "note": "(stereo not given)", "activity change, negative = cytotoxicity": "inactive: -13.7%"}, {"compound": "O=C(Nc1nnc(SCC(=O)N2CCOCC2)s1)c1ccccc1", "Potency": "active: 2.33 µM"}, {"compound": "O=[N+]([O-])c1nn(-c2ccc(Cl)cc2)n(O)c1=NCc1ccncc1", "activity change, negative = cytotoxicity": "inactive: 15.3%"}, {"compound": "CC(=O)CSc1ccc(-c2nc3ccccc3[nH]2)cn1", "Potency": "active: 14.7 µM"}, {"compound": "COc1cc(SC)ccc1C(=O)Nc1nc2ccccc2[nH]1", "Potency": "active: 2.07 µM"}, {"compound": "CCN(CC)CCNC(=O)c1ccc(NC(=O)COc2ccc3c(c2)CCC3)cc1", "activity change, negative = cytotoxicity": "inactive: 1.8%"}, {"compound": "Cc1ccc(CNC(=O)c2cc(S(=O)(=O)N3CCOCC3)cn2C)cc1", "activity change, negative = cytotoxicity": "inactive: 1.47%"}, {"compound": "CCN1C(=O)[C@H]2[C@H]3CN=C(SCc4ccccc4)N3[C@@](Cc3ccccc3)(C(=O)OC)[C@H]2C1=O", "activity change, negative = cytotoxicity": "inactive: 14.9%"}, {"compound": "Cc1ncc([N+](=O)[O-])n1CCOC(=O)c1cc(Cl)cc(Cl)c1N", "activity change, negative = cytotoxicity": "inactive: 19.6%"}, {"compound": "CCN(CC)CC(=O)c1c(C)n(C)c2ccc(OC)cc12", "activity change, negative = cytotoxicity": "inactive: 11%"}, {"compound": "Cc1ccccc1-c1nc2c(=O)n(C)c(=O)nc-2n(C)n1", "Potency": "active: 3.29 µM"}, {"compound": "Cc1nn(CCCC(=O)Nc2c(F)cc(F)cc2Br)c(C)c1[N+](=O)[O-]", "activity change, negative = cytotoxicity": "inactive: 17.7%"}, {"compound": "Cc1ccc(S(=O)(=O)CC(=O)Nc2ccc(F)c(F)c2F)cc1", "activity change, negative = cytotoxicity": "inactive: 20.6%"}, {"compound": "CC(NC(=O)Cn1cc(Br)c([N+](=O)[O-])n1)c1ccccc1", "note": "(stereo not given)", "activity change, negative = cytotoxicity": "inactive: 19%"}, {"compound": "COc1ccc(N2CCCC2)c(NC(=O)c2ccc([N+](=O)[O-])o2)c1", "activity change, negative = cytotoxicity": "inactive: 14%"}, {"compound": "CN(Cc1cccc(Cl)c1)C(=O)C1CCC(=O)N(C2CC2)C1", "note": "(stereo not given)", "activity change, negative = cytotoxicity": "inactive: 21.8%"}, {"compound": "Fc1ccc(CN2CC[C@H]3C=CCc4cccc(c43)C2)cc1", "activity change, negative = cytotoxicity": "inactive: 7%"}, {"compound": "Cc1ccc(NC(=O)c2ccc([N+](=O)[O-])o2)cc1S(=O)(=O)N1CCOCC1", "Potency": "active: 13.1 µM"}, {"compound": "COc1ccc(OCc2cc(C(=O)N(C)Cc3cc(C4CC4)n[nH]3)no2)c(Cl)c1", "activity change, negative = cytotoxicity": "inactive: 11%"}, {"compound": "COc1cc(C(=O)NC(=S)Nc2ccc(Cl)cn2)cc(OC)c1OC", "activity change, negative = cytotoxicity": "inactive: -8.85%"}, {"compound": "N#C/C(=C/c1ccc(O)c([N+](=O)[O-])c1)C(=O)Nc1ccccc1", "activity change, negative = cytotoxicity": "inactive: -5.68%"}, {"compound": "CC1CCN(c2c([N+](=O)[O-])nn(-c3ccc4c(c3)OCCO4)[n+]2[O-])CC1", "activity change, negative = cytotoxicity": "inactive: 0.373%"}, {"compound": "COc1ccc(OC)c(NC(=O)N2CCc3ccccc3C2)c1", "activity change, negative = cytotoxicity": "inactive: 17.4%"}]}]}
